Values joined by “and” are separate entries in the source; they are usually repeats but may differ in a detail not shown here. Identical values can stand only once. Hit rate of the full screen: of about 48,000 compounds, about 1,200 (2.5%) were called active. Another 2% or so got no clear call; they are omitted.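 The calls were made as follows: active = activation of at least 60% and not above a set upper limit (about 1 call in 100 departs from these limits); inconclusive = activation of 40% to 60%, or above that upper limit; inactive = activation under 40%.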 The list shows a part of the results.
The compounds below were run against Probable G-protein coupled receptor 32 (Homo sapiens) (UniProt O75388) (assay: qHTS for Agonists of Human Resolvin D1 Receptor DRV1). Details: CHO-K1 GPR32 beta-arrestin PathHunter luminescence, 90 min; at 76.9 µM; stronger effect = higher value; zero percent set by DMSO-only wells.
Chain of UniProt O75388 (O75388 whole entry, looked up, the tested form may be a part): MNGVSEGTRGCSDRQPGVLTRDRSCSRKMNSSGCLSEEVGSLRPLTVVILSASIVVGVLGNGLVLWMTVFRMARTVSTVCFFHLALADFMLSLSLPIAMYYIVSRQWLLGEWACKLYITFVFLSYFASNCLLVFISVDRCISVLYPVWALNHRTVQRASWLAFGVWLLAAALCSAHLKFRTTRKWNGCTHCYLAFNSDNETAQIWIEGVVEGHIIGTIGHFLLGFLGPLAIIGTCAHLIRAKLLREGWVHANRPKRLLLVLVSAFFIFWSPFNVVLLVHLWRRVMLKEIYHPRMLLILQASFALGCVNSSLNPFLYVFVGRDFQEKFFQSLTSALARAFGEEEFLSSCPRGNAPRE
Method in brief: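 Agonism was scored by beta-Gal fragment complementation (chemiluminescent read, 1 h detection at ambient temperature) reporting beta-arrestin binding to GPR32 in engineered CHO-K1 cells. Compound treatment lasted 90 min at 37 C, normalized to a DMSO basal control.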
With `COc1ccccc1-c1nc(SCC(=O)NCc2ccccc2)c2c(=O)n(C)c(=O)n(C)c2n1` the activation was inactive: 9.84%.
For `COc1ccccc1-c1noc(-c2ccc(NC3CCCC3)c([N+](=O)[O-])c2)n1`, the activation was inactive: 11.7%.
`Cc1cc2nc(-c3ccc(NC(=O)c4ccccc4F)cc3)oc2cc1C` was tested, and the activation was inactive: -18.3%.
`Cc1ccc(C)c(NC(=O)C2CCCN(c3ncnc4onc(C)c34)C2)c1` (stereo not given) was tested, and the activation was inactive: 1.14%.
In the case of `COc1ccc(OC)c(C2=NS(=O)(=O)N(C)C(C(=O)Nc3ccc(F)cc3F)=C2)c1`, the activation is reported as inactive: -14.9%.
In the case of `O=C(CSc1cn(CC(=O)N2CCCCC2)c2ccccc12)Nc1ccccc1`, the activation is reported as inactive: -9.07%.
In the case of `N#Cc1nc(-c2ccc(COc3ccc(Cl)cc3)o2)oc1N1CCC(C(N)=O)CC1`, the activation is reported as inactive: 37%.
`O=C(Cn1c(=O)n(-c2ccccc2)c(=O)c2c3c(sc21)CCCC3)Nc1ccc(F)cc1F` was tested, and the activation was inactive: -4.37%.
`COc1ccc(OC)c(S(=O)(=O)NCCS(=O)(=O)N2CCN(c3ccccc3)CC2)c1` was tested, and the activation was inactive: 19%.
With `Cc1cc(=O)n(Cc2ccc(Cl)cc2)c2c1c(C)nn2-c1ccccc1` the activation was inactive: -11.7%.
With `COc1cccc(CNC(=O)c2cccc(-n3c(C)nc4cccnc43)c2)c1OC` the activation was inactive: 9.01%.
For `CCc1ccccc1NC(=O)N1CCCn2nc(C)cc21`, the activation was inactive: -15%.
`O=C(NCC(c1ccco1)S(=O)(=O)c1cccs1)c1ccc(F)c(F)c1` (stereo not given) was tested, and the activation was inactive: -1.04%.
In the case of `O=C(NCc1noc2ccccc12)N1CCN(c2ccccc2)CC1`, the activation is reported as inactive: -14.8%.
With `CC1CCN(c2nn3c(=O)c(C(=O)NC(C)C)cnc3s2)CC1` the activation was inactive: -0.841%.
For `Cc1nc(-c2ccccc2)sc1-c1ccc(SCC(=O)NCc2ccccc2Cl)nn1`, the activation was inactive: -14.8%.
For `Cc1nn(C)c2c1c(-c1ccccc1)cc(=O)n2CC(=O)NC(C)c1ccccc1` (stereo not given), the activation was inactive: -4.77%.
`CCOc1ccc(-c2cc3nc(C4CCN(C(=O)OC(C)(C)C)CC4)c(C(=O)Nc4cc(OC)ccc4OC)cn3n2)cc1` was tested, and the activation was inactive: -8.13%.
For `CCN1CCOC(=O)C1CC(=O)Nc1ccc(Br)cc1` (stereo not given), the activation was active: 74.4%.
`Cc1ccc(Cl)cc1NC(=O)c1sc(-n2nc(C)c(Cc3ccc4c(c3)OCO4)c2C)nc1C` was tested, and the activation was inactive: 2.11%.
`O=C(Cn1c(=O)n(Cc2ccccc2)c(=O)c2sc3ccccc3c21)Nc1ccccc1` was tested, and the activation was inactive: -8.64%.
With `CCCOc1ccc(C2c3c(-c4c(C)cc(C)cc4O)n[nH]c3C(=O)N2CCO)cc1` (stereo not given) the activation was inactive: 23.7%.
For `CCCCCn1c(CN2CCN(c3ccc(OC)cc3)CC2)nc2c1c(=O)[nH]c(=O)n2C`, the activation was inactive: -11.5%.
With `COc1ccc(-n2c(-c3ccco3)nc3c(cnn3-c3ccccc3Cl)c2=O)cc1` the activation was inactive: -0.901%.
With `Cc1ccc(Cl)cc1NC(=O)Nc1cccc(OCc2cc(=O)n3ccccc3n2)c1` the activation was inactive: -0.278%.
In the case of `CC(=O)c1cccc(NS(=O)(=O)c2cc3c(cc2C)N(C(C)=O)CCO3)c1`, the activation is reported as inactive: -10.9%.
With `O=C(CCCc1ccccc1)NC1CC(=O)N(c2ccc(F)cc2)C1` (stereo not given) the activation was inactive: -4.56%.
With `CCc1cccc(NC(=O)c2ccc(NC(=O)N3CCSc4ncccc43)cc2)c1` the activation was inactive: 2.84%.
With `Cc1ccc(NC(=O)N2CCC(CN3CCCC3)CC2)c(C)c1` the activation was inactive: -18%.
For `Cc1ccc(-c2nc(C(=O)NCc3ccccc3Cl)c3n2CCCCC3)cc1`, the activation was inactive: -11.1%.
With `Cc1ccc2nc(-c3cc(NC(=O)COc4ccc(C)c(C)c4)ccc3Cl)oc2c1` the activation was inactive: -11.5%.
`CN1N=C(C(N)=O)CCC1=O` was tested, and the activation was inactive: 17.9%.
In the case of `Cc1ccc(NC(=O)N2CCN(c3cc(-c4noc(C)n4)ccc3C)CC2)c(F)c1`, the activation is reported as inactive: -2.14%.
In the case of `CCC(=O)Oc1ccc(C2Nc3ccccc3-c3nnc(SC)nc3O2)cc1` (stereo not given), the activation is reported as inactive: 3.36%.
`Cc1ccc(S(=O)(=O)Nc2cc3c(cc2N2CCOCC2)n(C)c(=O)n3C)cc1` was tested, and the activation was inactive: -0.39%.
`Cc1cccc(NC(=O)C(Cc2ccccc2)NS(=O)(=O)c2ccc3c(c2)c(=O)n(C)c(=O)n3C)c1` (stereo not given) was tested, and the activation was inactive: -8.89%.
In the case of `Cc1ccc(C(=O)NCC(c2ccc3c(c2)OCO3)N2CCOCC2)cc1` (stereo not given), the activation is reported as inactive: -11.5%.
`Cc1c(-c2nc(-c3ccc4c(c3)OCO4)no2)nnn1-c1ccc(C(C)C)cc1` was tested, and the activation was inactive: -4.41%.
`CCc1nn(CCCC(=O)N2CCN(c3cccc(OC)c3)CC2)c(=O)c2cc3occc3n12` was tested, and the activation was inactive: 4.24%.
`COC(=O)C1CCN(S(=O)(=O)c2ccc(N3CCCCS3(=O)=O)cc2)CC1` was tested, and the activation was inactive: 14.3%.
In the case of `COC(=O)c1cc(C)nc2c1c(=O)nc(SCc1ccccc1C)n2C1CC1`, the activation is reported as inactive: -22%.
`O=C1[C@H]2CCCC[C@H]2C(=O)N1CCCCN1CCN(c2nsc3ccccc23)CC1` was tested, and the activation was inactive: -53.9%.
In the case of `COc1ccc(CCN2C(=O)c3[nH]nc(-c4ccccc4O)c3C2c2ccc(OC)c(OC)c2)cc1` (stereo not given), the activation is reported as inactive: -25.7%.
In the case of `CCOC(=O)c1c(NC(=O)CSc2cn(CCNC(=O)c3c(F)cccc3F)c3ccccc23)sc2c1CCC2`, the activation is reported as inactive: -7.96%.
`Cc1ccc(S(=O)Cc2nc(-c3ccc(C(=O)NCc4cccc(C)c4)cc3)oc2C)cc1` (stereo not given) was tested, and the activation was inactive: -6.33%.
With `O=C(CCn1nc(-c2ccc(Cl)cc2)ccc1=O)NCCc1ccccc1` the activation was inactive: -6.37%.
In the case of `CC(=O)Nc1c(C)nn(-c2ccccc2)c1N1CCC(C(=O)NCc2ccccc2Cl)CC1`, the activation is reported as inactive: -6.56%.
`CN(C)S(=O)(=O)c1ccc2c(c1)/C(=C/c1cc3c([nH]1)CCCC3)C(=O)N2` was tested, and the activation was inactive: -40.6%.
For `O=C(COc1ccccc1Cl)Nc1ccc2nc(SCC(=O)N3CCCC3)sc2c1`, the activation was inactive: -5.84%.
In the case of `CCCn1c(=O)c2sccc2n2c(CCCC(=O)NCc3ccccc3)nnc12`, the activation is reported as inactive: 0.437%.
With `CCOC(=O)COc1ccc(F)cc1C(=O)c1ccn2nc(-c3ccc(Cl)cc3)cc2n1` the activation was inactive: -7.69%.
For `CCOC(=O)c1noc2ncnc(Nc3cccc(OC)c3)c12`, the activation was inactive: -1.5%.
`COc1cccc(NC(=O)CSc2nc(-c3ccccc3Cl)nc3c2Cc2c(CO)cnc(C)c2O3)c1` was tested, and the activation was inactive: 0.281%.
In the case of `CCOc1ccc(-n2c(SCC(N)=O)nc3c(oc4ccccc43)c2=O)cc1`, the activation is reported as inactive: -18.4%.
For `COc1ccc(-c2cc(-c3ccccc3)nc(SCC(=O)Nc3ccccc3F)c2C#N)cc1`, the activation was inactive: -2.72%.
For `Clc1cccc(Cl)c1NC1=NCCN1`, the activation was inactive: -16.3% and inactive: 2.45%.
For `Nc1ncc(S(=O)(=O)Nc2ccc(F)cc2F)cn1`, the activation was inactive: -7.23%.
With `COc1ccc(C2C=C(c3ccccc3)Nc3nc(NC(=O)/C=C/c4ccccc4Cl)nn32)cc1` (stereo not given) the activation was inactive: -16.3%.
`CCc1cnc2c(c1SCC(=O)NCc1ccc(F)cc1)c(=O)n(C)c(=O)n2C` was tested, and the activation was inactive: -16.2%.
`CN(C)c1ccc(N=NS(=O)(=O)O)cc1` was tested, and the activation was inactive: -90.2%.
For `Cc1cccc(C(=O)Nc2ccc3nc(SCCOc4ccccc4)sc3c2)c1`, the activation was inactive: 14.1%.
In the case of `COc1ccc(CCNc2nc(SCc3ccc(Cl)cc3)nc3ccccc23)cc1OC`, the activation is reported as inactive: -16.2%.
For `CCCCCOc1ccccc1/C(=C\SC)n1ccnc1`, the activation was inactive: -64.7%.
In the case of `Nc1c(C(=O)Nc2cccc(F)c2)c2ccccn2c1C(=O)c1ccccc1`, the activation is reported as inactive: 11.4%.
With `CCOC(=O)c1c(NC(=O)COc2cccc(C)c2C)sc(C(C)=O)c1C` the activation was inactive: -10.9%.
For `COc1ccc(N2CCN(C(c3ccccc3F)c3sc4nc(-c5ccco5)nn4c3O)CC2)cc1` (stereo not given), the activation was inactive: 2.21%.
`COc1ccc(Cl)cc1NC(=O)Cn1c(=O)c(-c2ccccc2NC(C)=O)nc2ccccc21` was tested, and the activation was inactive: -5.7%.
`Cc1ccc(C)c(Cn2c(C(=O)O)c(CNCc3cccs3)c3ccccc32)c1` was tested, and the activation was inactive: -15.3%.
In the case of `COC(=O)c1ccccc1NC(=O)Cn1c(=O)cc(C)c2c(C)nn(C)c21`, the activation is reported as inactive: -7.23%.
`Cc1cc(C)c2c(c1)c(C)cc1nnc(SCC(=O)c3ccc(F)cc3)n12` was tested, and the activation was inactive: -14.4%.
`CCCCC(=O)N1CCc2cc(OC)c(OC)cc2C1COc1ccc(OC)cc1` (stereo not given) was tested, and the activation was inactive: -4.89%.
For `COc1ccc(NC(=O)CN2C(=O)COc3ccc(S(=O)(=O)N4CCCCC4)cc32)cc1OC`, the activation was inactive: -17%.
`CN(C)CCNC(=O)C(=O)NCC(c1ccc2c(c1)OCO2)N1CCOCC1` (stereo not given) was tested, and the activation was inactive: 2.3%.
For `Cc1c(C(=O)O)oc2c1-c1nn(Cc3ccc(Cl)cc3)cc1CC2`, the activation was inactive: -24%.
`Cc1cc(-c2ccccc2)n2nc(-c3ccccc3)cc2n1` was tested, and the activation was inactive: -33.7%.
With `COc1cccc(CNS(=O)(=O)c2ccc3c(c2)C(C(C)C)C(=O)N3)c1` (stereo not given) the activation was active: 75.8%.
With `Cc1ccc(NC(=O)CC2Sc3ccc(C(F)(F)F)cc3NC2=O)cc1` (stereo not given) the activation was inactive: 15%.
`COc1ccccc1C(=O)Nc1c(C(=O)Nc2ccccc2F)oc2ccccc12` was tested, and the activation was inactive: 0.189%.
In the case of `CCOc1ccc(C(c2c(O)cc(C)n(Cc3ccco3)c2=O)N2CCCCC2)cc1` (stereo not given), the activation is reported as inactive: -9.18%.
`Cc1ccc2cccc(NC(=O)C(C)Oc3ccc(Cl)cc3Cl)c2n1` (stereo not given) was tested, and the activation was inactive: -30.2%.
`O=C(Nc1cccc(-c2nc3ccccc3o2)c1)C(F)(F)F` was tested, and the activation was inactive: -0.643%.
In the case of `CC(=O)c1ccc(NC(=O)CN(C)S(=O)(=O)c2cnc[nH]2)cc1`, the activation is reported as inactive: 7.37%.
With `COc1ccc(CNC(=O)Nc2cn(CC(C)C)c(=O)c3ccccc23)cc1` the activation was inactive: -30.1%.
In the case of `Cc1ccn2c(Nc3ccc(C(C)C)cc3)c(-c3cccnc3)nc2c1`, the activation is reported as inactive: 49.4%.
In the case of `CCN1C(=O)c2ccccc2C1Nc1ccc(OCCN2CCCCC2)cc1` (stereo not given), the activation is reported as inactive: 18.2%.

Source: PubChem BioAssay AID1346428 (National Center for Advancing Translational Sciences (NCATS), 2018)
Also: 0% is about no effect.
